Test results published in PubChem BioAssay AID1345082 (National Center for Advancing Translational Sciences (NCATS), 2018).
“And” between values parts separate entries of the source, which are not always exact repeats. Equal entries are not always repeated. The campaign covered roughly 94,000 compounds. About 4,000 (4.3%) were called active. Inconclusive results, whose numbers are uncertain, are shown with a selection of clear calls. Calls follow the shape of the dose curve; as a rule, active = well fitted inhibition curve with a large enough effect; inconclusive = small, poorly fitted or top-dose-only effect; inactive = no such curve, though single readings can be large or run the other way. Potencies of inconclusive entries are doubtful fits and often do not repeat.

assay: Cytotoxic Profiling in NIH 3T3 Cell Line of Diverse Libraries Using Quantitative High-Throughput Screening; conditions: NIH 3T3 viability, CellTiter-Glo ATP luminescence, 48-72 h; series mostly up to 96.7 µM; also: nearly all actives have a fitted effect of over 55% in size
Outline: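 Viability of NIH 3T3 cells after 48 or 72 hr compound treatment at 37 °C was assessed by CellTiter-Glo, with luminescence imaged following a 10 min room-temperature step.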
Potency is read from the fitted curve at half-maximal effect; tags tell the direction and shape of the fitted curve.

Row | SMILES | Potency
1 | O=C(c1ccco1)N1CC(Oc2ccccc2-c2nc(C3CC3)no2)C1 | inconclusive: 50.1 µM [inhibitor, partial curve, poor fit]
2 | CC(=O)Nc1ccc(CC(=O)N2CCc3c(nc4cc(-c5ccccc5Cl)[nH]n4c3=O)C2)cc1 | inactive
3 | O=C(c1ccccc1Cl)N1CCC(n2cc(-c3nc(-c4ccccc4)no3)nn2)CC1 | inactive
4 | Cc1ccc(-c2nnc(C3CN(C(=O)c4cccs4)CC34CCOCC4)o2)cc1 (stereo not drawn) | inactive
5 | O=C(c1ccc2c(c1)N(C(=O)c1ccccc1)CC2)N1CCN(c2ccc(Cl)cc2)CC1 | inconclusive: 22.4 µM [inhibitor, full curve, poor fit]
6 | COc1cccc(C(=O)N2CCC(c3nn(-c4ccc(F)cc4)c(=O)[nH]3)CC2)c1 | inconclusive: 70.8 µM [inhibitor, single point]
7 | Cc1cnc(C(=O)N2CCOc3ccc(CCC(N)=O)cc3C2)cn1 | inactive
8 | CN(Cc1ccc(C#N)cc1)Cc1cccc2cnccc12 | inconclusive: 44.7 µM [inhibitor, partial curve, poor fit]
9 | O=C(NCc1ccc(F)cc1)C1CCc2sc(C(=O)N3CCCC3)cc2C1 (stereo not drawn) | inconclusive: 50.1 µM [inhibitor, partial curve, poor fit]
10 | Cc1nn(-c2ccccc2)c2c1C(C)N(C1CCCN([S+](=O)([O-])C(C)C)C1)C2=O (stereo not drawn) | inactive
11 | COCCOCC1(CNCc2cn(C)c3ccccc23)C[C@@H](O)[C@@H](O)C1 (stereo partly drawn) | inactive
12 | C=CCn1cc2c3c(cccc31)[C@H](CC(C)C)N[C@H](C(=O)NC1CCCC1)C2 | active: 31.6 µM
13 | O=C(NCc1ccc(-c2ccc(Cl)cc2)o1)C1NCCc2[nH]cnc21 (stereo not drawn) | inconclusive: 56.2 µM [inhibitor, partial curve, poor fit]
14 | O=C(c1cc2n(n1)CC(c1ccc3c(c1)OCO3)OC2)N1CCCC1 (stereo not drawn) | inconclusive: 39.8 µM [inhibitor, partial curve, poor fit]
15 | Cc1nc(-c2ccccc2OC2CN(C(=O)c3cccc4[nH]ccc34)C2)no1 | inconclusive: 39.8 µM [inhibitor, partial curve]
16 | COc1ccccc1-c1ccc(CN2CCCCC2C(=O)NC2CC2)cc1 (stereo not drawn) | inconclusive: 44.7 µM [inhibitor, partial curve, poor fit] and inconclusive: 50.1 µM [inhibitor, partial curve, poor fit]
17 | O=C(c1ccc2c(c1)OCO2)N1CCCC2(CNc3ccccc3[S+](=O)([O-])N2)C1 (stereo not drawn) | inactive
18 | CCOc1ccc(NC(=O)Cn2ccn3nc4c(c3c2=O)CC(C)CC4)cc1 (stereo not drawn) | active: 31.6 µM
